According to the supplement of paper PMC8728848:
The list shows a part of the results.

Columns and labels:
Experiment in all cases: glycan array binding signal (z-score within array); higher = stronger binding
Details in all cases: glycan notation: IUPAC condensed, linker removed
[1] = target: Neu5Ac(a2-6)Gal(b1-4)GlcNAc(b1-3)Gal(b1-4)GlcNAc(b1-3)GalNAc
How it was run: (§1)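 The Consortium for Functional Glycomics database supplied 3228 glycan arrays, of which those lacking an available protein sequence were dropped. The binding signal, a within-array Z-score, was averaged across arrays of the same protein sequence and across linkers. Negative scores can be read as non-binding.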

[2] = target: Neu5Ac(a2-6)Gal(b1-4)GlcNAc(b1-3)Gal(b1-4)GlcNAc(b1-3)[Neu5Ac(a2-6)Gal(b1-4)GlcNAc(b1-3)Gal(b1-4)GlcNAc(b1-6)]GalNAc
How it was run: as §1

[3] = target: Neu5Ac(a2-6)Gal(b1-4)GlcNAc(b1-3)Gal(b1-4)GlcNAc(b1-6)[Gal(b1-3)]GalNAc
How it was run: as §1

[4] = target: Neu5Ac(a2-6)Gal(b1-4)GlcNAc(b1-3)Gal(b1-4)[Fuc(a1-3)]GlcNAc(b1-3)Gal(b1-4)[Fuc(a1-3)]GlcNAc
How it was run: as §1

[5] = target: Neu5Ac(a2-6)Gal(b1-4)GlcNAc(b1-3)GalNAc
How it was run: as §1

[6] = target: Neu5Ac(a2-6)Gal(b1-4)GlcNAc(b1-3)[Neu5Ac(a2-6)Gal(b1-4)GlcNAc(b1-6)]GalNAc
How it was run: as §1

[7] = target: Neu5Ac(a2-6)Gal(b1-4)GlcNAc(b1-6)GalNAc
How it was run: as §1

[8] = target: Neu5Ac(a2-6)Gal(b1-4)GlcNAc(b1-6)[Gal(b1-3)GlcNAc(b1-3)]Gal(b1-4)Glc
How it was run: as §1

[9] = target: Neu5Ac(a2-6)Gal(b1-4)GlcNAc(b1-6)[Gal(b1-3)]GalNAc
How it was run: as §1

[10] = target: Neu5Ac(a2-6)Gal(b1-4)GlcNAc6S
How it was run: as §1

[11] = target: Neu5Ac(a2-6)GalNAc
How it was run: as §1

[12] = target: Neu5Ac(a2-6)GalNAc(b1-4)GlcNAc
How it was run: as §1

[13] = target: Neu5Ac(a2-6)GalNAc(b1-4)GlcNAc6S
How it was run: as §1

[14] = target: Neu5Ac(a2-6)GlcNAc(b1-4)GlcNAc
How it was run: as §1

[15] = target: Neu5Ac(a2-6)GlcNAc(b1-4)GlcNAc(b1-4)GlcNAc
How it was run: as §1

[16] = target: Neu5Ac(a2-8)Neu5Ac
How it was run: as §1

[17] = target: Neu5Ac(a2-8)Neu5Ac(a2-3)Gal(b1-3)GalNAc(b1-4)[Neu5Ac(a2-3)]Gal(b1-4)Glc
How it was run: as §1

[18] = target: Neu5Ac(a2-8)Neu5Ac(a2-3)Gal(b1-3)GalNAc(b1-4)[Neu5Ac(a2-8)Neu5Ac(a2-3)]Gal(b1-4)Glc
How it was run: as §1

[19] = target: Neu5Ac(a2-8)Neu5Ac(a2-3)Gal(b1-4)Glc
How it was run: as §1

[20] = target: Neu5Ac(a2-8)Neu5Ac(a2-3)Gal(b1-4)GlcNAc
How it was run: as §1

[21] = target: Neu5Ac(a2-8)Neu5Ac(a2-3)[Gal(b1-3)GalNAc(b1-4)]Gal(b1-4)Glc
How it was run: as §1

[22] = target: Neu5Ac(a2-8)Neu5Ac(a2-3)[GalNAc(b1-4)]Gal(b1-4)Glc
How it was run: as §1

[23] = target: Neu5Ac(a2-8)Neu5Ac(a2-8)Neu5Ac
How it was run: as §1

[24] = target: Neu5Ac(a2-8)Neu5Ac(a2-8)Neu5Ac(a2-3)Gal(b1-4)Glc
How it was run: as §1

[25] = target: Neu5Ac(a2-8)Neu5Ac(a2-8)Neu5Ac(a2-3)[Gal(b1-3)GalNAc(b1-4)]Gal(b1-4)Glc
How it was run: as §1

[26] = target: Neu5Ac(a2-8)Neu5Ac(a2-8)Neu5Ac(a2-3)[GalNAc(b1-4)]Gal(b1-4)Glc
How it was run: as §1

[27] = target: Neu5Ac(a2-8)Neu5Ac(a2-8)Neu5Ac(a2-8)Neu5Ac(a2-3)[GalNAc(b1-4)]Gal(b1-4)Glc
How it was run: as §1

[28] = target: Neu5Ac(a2-8)Neu5Gc(a2-3)Gal(b1-4)GlcNAc
How it was run: as §1

[29] = target: Neu5Ac(b2-6)Gal(b1-4)GlcNAc
How it was run: as §1

[30] = target: Neu5Ac(b2-6)GalNAc
How it was run: as §1

[31] = target: Neu5Ac9Ac(a2-3)Gal(b1-3)GlcNAc
How it was run: as §1

[32] = target: Neu5Ac9Ac(a2-3)Gal(b1-4)GlcNAc
How it was run: as §1

[33] = target: Neu5Ac9Ac(a2-6)Gal(b1-4)GlcNAc
How it was run: as §1

[34] = target: Neu5Gc(a2-3)Gal(b1-3)GlcNAc
How it was run: as §1

[35] = target: Neu5Gc(a2-3)Gal(b1-3)[Fuc(a1-4)]GlcNAc
How it was run: as §1

[36] = target: Neu5Gc(a2-3)Gal(b1-4)Glc
How it was run: as §1

[37] = target: Neu5Gc(a2-3)Gal(b1-4)GlcNAc
How it was run: as §1

[38] = target: Neu5Gc(a2-3)Gal(b1-4)GlcNAc(b1-3)Gal(b1-4)GlcNAc(b1-2)Man(a1-3)[Neu5Gc(a2-3)Gal(b1-4)GlcNAc(b1-3)Gal(b1-4)GlcNAc(b1-2)Man(a1-6)]Man(b1-4)GlcNAc(b1-4)GlcNAc
How it was run: as §1

[39] = target: Neu5Gc(a2-3)Gal(b1-4)[Fuc(a1-3)]GlcNAc
How it was run: as §1

[40] = target: Neu5Gc(a2-6)Gal(b1-4)GlcNAc
How it was run: as §1

[41] = target: Neu5Gc(a2-6)GalNAc
How it was run: as §1

[42] = target: Neu5Gc(a2-8)Neu5Ac(a2-3)Gal(b1-4)GlcNAc
How it was run: as §1

[43] = target: Neu5Gc(a2-8)Neu5Gc(a2-3)Gal(b1-4)GlcNAc
How it was run: as §1

[44] = target: Neu5Gc(a2-8)Neu5Gc(a2-3)Gal(b1-4)GlcNAc(b1-3)Gal(b1-4)GlcNAc
How it was run: as §1

[45] = target: Neu5Gc(a2-8)Neu5Gc(a2-6)Gal(b1-4)GlcNAc
How it was run: as §1

[46] = target: Neu5Gc(b2-6)Gal(b1-4)GlcNAc
How it was run: as §1

B1: RBMC2 (Vibrio cholerae) (protein)
chain: KISVRSGFAIDAIGASASTLVGGTGGNLNAAVNVKDIKAIDLTWGKYYWGGYHLLALDFRMSNGSVISMGSKNYAYSKQTERFTVPAGSRIKGIKAWTAGWLLDGVQFELA
For B1, the “glycan array binding signal (z-score)” value [1] was -0.276, the “glycan array binding signal (z-score)” value [2] was -0.284 and the “glycan array binding signal (z-score)” value [3] was -0.204. The “glycan array binding signal (z-score)” value [4] was -0.338, the “glycan array binding signal (z-score)” value [5] was -0.407 and the “glycan array binding signal (z-score)” value [6] was -0.242. For the same binder, the “glycan array binding signal (z-score)” value [7] was -0.155, the “glycan array binding signal (z-score)” value [8] was -0.398 and the “glycan array binding signal (z-score)” value [9] was -0.421. The “glycan array binding signal (z-score)” value [10] was -0.412, the “glycan array binding signal (z-score)” value [11] was -0.408 and the “glycan array binding signal (z-score)” value [12] was -0.287. The “glycan array binding signal (z-score)” value [13] was -0.263, the “glycan array binding signal (z-score)” value [14] was -0.343 and the “glycan array binding signal (z-score)” value [15] was -0.254. The “glycan array binding signal (z-score)” value [16] was -0.379, the “glycan array binding signal (z-score)” value [17] was -0.379 and the “glycan array binding signal (z-score)” value [18] was -0.359. For the same binder, the “glycan array binding signal (z-score)” value [19] was -0.438, the “glycan array binding signal (z-score)” value [20] was -0.409 and the “glycan array binding signal (z-score)” value [21] was -0.339. The “glycan array binding signal (z-score)” value [22] was -0.162, the “glycan array binding signal (z-score)” value [23] was -0.051 and the “glycan array binding signal (z-score)” value [24] was -0.432. For the same binder, the “glycan array binding signal (z-score)” value [25] was -0.36, the “glycan array binding signal (z-score)” value [26] was -0.358 and the “glycan array binding signal (z-score)” value [27] was -0.393. The “glycan array binding signal (z-score)” value [28] was -0.401, the “glycan array binding signal (z-score)” value [29] was -0.214 and the “glycan array binding signal (z-score)” value [30] was -0.472. The “glycan array binding signal (z-score)” value [31] was -0.326, the “glycan array binding signal (z-score)” value [32] was -0.407 and the “glycan array binding signal (z-score)” value [33] was -0.453. The “glycan array binding signal (z-score)” value [34] was -0.218, the “glycan array binding signal (z-score)” value [35] was -0.123 and the “glycan array binding signal (z-score)” value [36] was -0.322. The “glycan array binding signal (z-score)” value [37] was -0.338, the “glycan array binding signal (z-score)” value [38] was 2.28 and the “glycan array binding signal (z-score)” value [39] was -0.314. The “glycan array binding signal (z-score)” value [40] was -0.274, the “glycan array binding signal (z-score)” value [41] was -0.283 and the “glycan array binding signal (z-score)” value [42] was -0.39. The “glycan array binding signal (z-score)” value [43] was -0.333, the “glycan array binding signal (z-score)” value [44] was -0.257 and the “glycan array binding signal (z-score)” value [45] was -0.305. The “glycan array binding signal (z-score)” value [46] was -0.228.
